The RNAGym collection of RNA variant scans (doi:10.7554/elife.90254)
Read counts are not given, so values of variants with three or more changes are uncertain.

B1: LINE1-mini (parent)
chain: GGCAGAGCUCAACACAGCGUGGCAAAGUGGCUGUGGCUAGACUGCC

Variants of: B1
Assay: self-cleavage, relative activity (ratio to wild type); higher = more cleavage; in vitro, sequencing; the parent is a self-cleaving ribozyme
Work on C18A G21C C37G yielded a self-cleavage of 0.
Work on G17U U20G C23G yielded a self-cleavage of 0.05.
For G17U C18A G22A G36A, the self-cleavage was 0.07.
In the case of G17U C42U U43C C46G, the self-cleavage is reported as 0.1.
G17C U20G G30U G40U gave a self-cleavage of 0.02.
With G17C U32A G33U the self-cleavage was 0.06.
G17C G19C C45G showed a self-cleavage of 0.31.
In the case of G17U G29U U38C G40U, the self-cleavage is reported as 0.05.
Variant G17U G21U C23G has a self-cleavage of 0.03.
G17U G21U C23U gave a self-cleavage of 0.39.
For G17U G33C C37U, the self-cleavage was 0.02.
In the case of G17C G33C A41G, the self-cleavage is reported as 0.02.
For C18A G19U U20A C42A, the self-cleavage was 0.01.
C18A C31G G33U A39G G40A showed a self-cleavage of 0.03.
In the case of G17U G22A U34C C45A, the self-cleavage is reported as 0.02.
With G17U C37A C45U the self-cleavage was 0.
Work on G17U G30U U34A C42U yielded a self-cleavage of 0.02.
G17C G21U C46A gave a self-cleavage of 0.18.
In the case of C18A A25G C45G, the self-cleavage is reported as 0.09.
G17U C18A G29U G33U showed a self-cleavage of 0.02.
G17U G21C G30A G33A U34C gave a self-cleavage of 0.06.
In the case of C18A G21U U43C, the self-cleavage is reported as 0.1.
For G17C U20C A41U U43A, the self-cleavage was 0.03.
C18A A24G U32C gave a self-cleavage of 0.02.
Variant G17C G33A C37A has a self-cleavage of 0.04.
G17C G33A C37U gave a self-cleavage of 0.02.
With C18A A24C A25U A26C the self-cleavage was 0.01.
C18A G19C C31G showed a self-cleavage of 0.03.
In the case of G17C G21A C31U G40U U43G, the self-cleavage is reported as 0.02.
G17C U34G A41C showed a self-cleavage of 0.02.
C18A A25C G44C gave a self-cleavage of 0.1.
Variant G17U G21C U28A G29U G44A has a self-cleavage of 0.36.
Variant G17C G27C G40C has a self-cleavage of 0.04.
G17C G21U A25U showed a self-cleavage of 1.14.
Variant G17C G21U G30C C31G has a self-cleavage of 0.06.
C18A G21U C37A C46A showed a self-cleavage of 0.27.
For G17U G29A C42U, the self-cleavage was 0.
In the case of G17U A26U G36U, the self-cleavage is reported as 0.09.
With C18A G22C G27C U32A the self-cleavage was 0.01.
In the case of G17U G30U C31G U32G, the self-cleavage is reported as 0.04.
For G17U G29U U38C C45A, the self-cleavage was 0.04.
Work on G17U G21A G33A A41U U43C yielded a self-cleavage of 0.06.
For G17C G22U G30C, the self-cleavage was 0.08.
G17U A24G A25U G40U gave a self-cleavage of 0.17.
Work on G17U U43C C45U C46G yielded a self-cleavage of 0.08.
With G17C U43A G44U the self-cleavage was 0.06.
C18A G22C C46A gave a self-cleavage of 0.15.
For G17C U34C U38G G40A, the self-cleavage was 0.08.
C18A A26C A41C gave a self-cleavage of 0.01.
With C18A C23A A25C G30C C42G the self-cleavage was 0.45.
In the case of G17U G21U G29U U32G, the self-cleavage is reported as 0.04.
G17U U34G G40U gave a self-cleavage of 0.09.
Variant G17U C23A A24C A41G has a self-cleavage of 0.05.
In the case of C18A G21A U32A G44U, the self-cleavage is reported as 0.03.
G17U A24G U32C showed a self-cleavage of 0.01.
Work on G17U G22C C45A yielded a self-cleavage of 0.12.
In the case of G17U A39C C42G, the self-cleavage is reported as 0.01.
In the case of G17U G29U U34G, the self-cleavage is reported as 0.02.
Work on C18A A24G U28G G30U yielded a self-cleavage of 0.05.
For G17U G30U C31U C42U, the self-cleavage was 0.04.
For G17U A25C G29U, the self-cleavage was 0.34.
Work on G17U G22U C45U yielded a self-cleavage of 0.25.
C18A G21C G36U A39G gave a self-cleavage of 0.03.
G17C U28C C37G C42A showed a self-cleavage of 0.
G17U U28A G33C C46A showed a self-cleavage of 0.
With C18A C23U G33C the self-cleavage was 0.01.
In the case of C18A G19C C23U U43G, the self-cleavage is reported as 0.
In the case of G17U C18A G29A C31U, the self-cleavage is reported as 0.15.
In the case of G17U C18G A25C G36C, the self-cleavage is reported as 0.07.
In the case of C18A A26U G29U C45A, the self-cleavage is reported as 0.07.
In the case of G17U G21U A39G, the self-cleavage is reported as 0.08.
With G17U G21A G33U the self-cleavage was 0.07.
Variant C18A C23G A25U has a self-cleavage of 0.05.
C18A A24C C45A showed a self-cleavage of 0.04.
For C18A C23G G33U, the self-cleavage was 0.02.
Work on G17C G22U G36A yielded a self-cleavage of 0.09.
Variant G17U C18A G21U has a self-cleavage of 0.05.
G17C G36A C42G C46G gave a self-cleavage of 0.02.
Variant C18A G19A U20A has a self-cleavage of 0.73.
Variant G17U G19U G21U G33U C46A has a self-cleavage of 0.04.
Work on G17C G29U C37A yielded a self-cleavage of 0.04.
In the case of G17U C18U G36U, the self-cleavage is reported as 0.02.
With G17U G22A A41C U43C the self-cleavage was 0.02.
With C18A G19U A24U U43A the self-cleavage was 0.01.
Variant G17C U20A G27A U38C has a self-cleavage of 0.45.
Variant G17U U28G G40A has a self-cleavage of 0.06.
With G17U A41U U43C the self-cleavage was 0.04.
In the case of G17U U28A G44A C46U, the self-cleavage is reported as 0.08.
Work on G17U G36U C42U yielded a self-cleavage of 0.02.
Variant G17U G21A U38A has a self-cleavage of 0.09.
G17C G27U G29C gave a self-cleavage of 0.04.
With G17C U20A A26U the self-cleavage was 0.25.
G17U A39C C46U gave a self-cleavage of 0.32.
G17U U28C C45A showed a self-cleavage of 0.44.
In the case of G17U C18G G30A, the self-cleavage is reported as 0.67.
Variant G17U C23A G29A has a self-cleavage of 0.6.
For G17U C23U C45A, the self-cleavage was 0.03.
G17U C18A U20C A39C C46A showed a self-cleavage of 0.04.
In the case of G17U G27U C46A, the self-cleavage is reported as 0.32.
Work on G17C G21C C45U yielded a self-cleavage of 2.33.
G17C U20G G29U showed a self-cleavage of 0.04.
In the case of C18A C31A C46A, the self-cleavage is reported as 0.15.
For G17U G27A U38C G44U, the self-cleavage was 0.02.
Variant G17U G19A G30C C45A has a self-cleavage of 0.02.
With G17U A24U A39U C45A the self-cleavage was 0.
Work on G17C G36C U38G G40U C46G yielded a self-cleavage of 0.07.
G17U A24U A25C U34G showed a self-cleavage of 0.03.
Variant G17U G22A A26C has a self-cleavage of 0.08.
C18A G19C A41G gave a self-cleavage of 0.15.
G17U G21U U34G G36U gave a self-cleavage of 0.01.
For G17C G33U U34G, the self-cleavage was 0.02.
In the case of G17C G19C G40U, the self-cleavage is reported as 0.05.
C18A A24U C31U G33C G40A showed a self-cleavage of 0.03.
Variant G17C U20G G21A C23A G29A G33C A39C C42U has a self-cleavage of 0.02.
With C18A A24G G27A C45U the self-cleavage was 0.27.
G17U U20A U34A G36A gave a self-cleavage of 0.01.
In the case of G17U C31U G44U, the self-cleavage is reported as 0.
In the case of C18A A26U G33C C45U, the self-cleavage is reported as 0.04.
In the case of C18A C42G C45U, the self-cleavage is reported as 0.02.
With G17U U32C C46A the self-cleavage was 0.06.
Variant C18A C23G G27C U28G G29U U43G has a self-cleavage of 0.13.
G17C U28A U43G gave a self-cleavage of 0.04.
For G17C U28A U43A, the self-cleavage was 0.09.
Variant G17U G30C C42G has a self-cleavage of 0.07.
With C18A C31G G35U the self-cleavage was 0.03.
G17C G29A C45U gave a self-cleavage of 0.19.
With G17C G22U A24C A39C the self-cleavage was 0.11.
For G17C G44C C46G, the self-cleavage was 0.
With C18A A26U U38C the self-cleavage was 0.04.
G17U G22U G35A showed a self-cleavage of 0.02.
With C18A G19U G21U A26C the self-cleavage was 1.85.
G17U U20C G27A C42G showed a self-cleavage of 0.02.
Variant C18A A39G G40U has a self-cleavage of 0.03.
Work on G17U C37U A41G C45A yielded a self-cleavage of 0.02.
With G17U U28A U34G the self-cleavage was 0.02.
In the case of G17U G30U A41U U43A, the self-cleavage is reported as 0.01.
C18A A26U G36A C46G gave a self-cleavage of 0.02.
With G17C G19C G22U G35U the self-cleavage was 0.06.
Work on C18A G19U G27A G40U A41C C42U yielded a self-cleavage of 0.11.
G17U A25U G27U U38G showed a self-cleavage of 0.18.
Work on C18A A26C U32A yielded a self-cleavage of 0.01.
G17U G29A A41C C45U gave a self-cleavage of 0.03.
In the case of G17C G21U G27A G40C, the self-cleavage is reported as 0.02.
For G17U C18A G40U C45A, the self-cleavage was 0.01.
Variant G17C G27A G30U has a self-cleavage of 0.49.
G17C G19C G21A gave a self-cleavage of 0.23.
C18A G21U A26U U38G showed a self-cleavage of 0.02.
Work on G17C G19C G27C C46U yielded a self-cleavage of 0.17.
G17U C18G C23U G40C C42U showed a self-cleavage of 0.
In the case of G17U G19U A24C G35A, the self-cleavage is reported as 0.01.
Variant G17C G22U U32C G35A has a self-cleavage of 0.02.
C18A C37A C42U C46G showed a self-cleavage of 0.03.
G17C G27A G33C gave a self-cleavage of 0.02.
C18A A26U U28G G30U G33U C46U gave a self-cleavage of 0.02.
For G17C U20C G33A U34A C42A, the self-cleavage was 0.02.
G17U C42U U43C gave a self-cleavage of 0.16.
Variant G17U C18G U28C C45U has a self-cleavage of 0.1.
G17U G19A A25C gave a self-cleavage of 0.48.
For G17C G22C U43G, the self-cleavage was 0.01.
G17U G40U G44U showed a self-cleavage of 0.02.
In the case of G17U A24C A25G G29U, the self-cleavage is reported as 0.06.
For G17U C31A U43C, the self-cleavage was 0.2.
G17U G22U C46A gave a self-cleavage of 0.07.
Work on C18A C23A C45G yielded a self-cleavage of 0.05.
Variant G17U C18U G22A A24C C46U has a self-cleavage of 0.05.
G17C G22U C31A G33U C37A U43A showed a self-cleavage of 0.03.
With G17U C18A G22C G44A the self-cleavage was 0.12.
